# Laboratory results as given in paper PMC4336329 (PLoS ONE, 2015).
# About 2,200 (0.71%) of roughly 310,000 compounds showed an effect of 50% or more. The effect is printed as a negative number. The list shows a part of the results.
# Target: human ether-à-go-go-related gene (hERG) potassium channel (human, UniProt Q12809)
# Test: primary screen, population patch clamp on CHO cells stably expressing hERG
# human ether-à-go-go-related gene (hERG) potassium channel, sequence (Q12809 whole entry, looked up): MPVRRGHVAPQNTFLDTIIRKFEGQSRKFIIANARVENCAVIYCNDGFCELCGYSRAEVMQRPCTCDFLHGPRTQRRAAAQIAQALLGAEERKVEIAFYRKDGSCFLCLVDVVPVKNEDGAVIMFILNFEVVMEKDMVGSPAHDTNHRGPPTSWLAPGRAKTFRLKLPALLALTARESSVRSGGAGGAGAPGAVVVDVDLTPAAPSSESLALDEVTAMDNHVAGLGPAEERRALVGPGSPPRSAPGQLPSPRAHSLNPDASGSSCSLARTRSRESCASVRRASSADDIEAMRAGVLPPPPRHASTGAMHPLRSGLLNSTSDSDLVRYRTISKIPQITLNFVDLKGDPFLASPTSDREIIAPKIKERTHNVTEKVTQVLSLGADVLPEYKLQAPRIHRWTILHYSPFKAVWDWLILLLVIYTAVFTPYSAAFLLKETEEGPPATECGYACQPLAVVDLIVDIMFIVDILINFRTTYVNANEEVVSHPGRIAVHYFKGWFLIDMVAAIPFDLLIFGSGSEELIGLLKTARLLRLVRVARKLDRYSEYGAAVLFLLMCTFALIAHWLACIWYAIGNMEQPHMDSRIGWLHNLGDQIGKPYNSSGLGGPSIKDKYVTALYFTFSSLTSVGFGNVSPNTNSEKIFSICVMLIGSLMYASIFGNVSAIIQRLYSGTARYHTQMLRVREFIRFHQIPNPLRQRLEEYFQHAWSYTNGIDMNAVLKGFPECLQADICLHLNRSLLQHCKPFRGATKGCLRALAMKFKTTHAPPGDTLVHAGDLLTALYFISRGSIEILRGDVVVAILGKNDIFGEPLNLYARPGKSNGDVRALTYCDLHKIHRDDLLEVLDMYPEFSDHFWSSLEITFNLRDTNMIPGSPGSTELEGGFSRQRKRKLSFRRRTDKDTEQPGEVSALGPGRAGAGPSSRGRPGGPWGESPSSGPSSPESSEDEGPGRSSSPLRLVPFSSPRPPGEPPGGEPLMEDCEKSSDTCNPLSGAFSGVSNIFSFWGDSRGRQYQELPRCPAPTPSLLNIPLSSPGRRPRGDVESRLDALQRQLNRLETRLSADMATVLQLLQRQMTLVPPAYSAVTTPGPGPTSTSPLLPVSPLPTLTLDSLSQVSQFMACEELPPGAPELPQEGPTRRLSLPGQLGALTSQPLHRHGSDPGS
row,SMILES,"hERG current change (%, negative = inhibition) at 1uM"
1,CCN(CC)c1ccc(/C=C(/C#N)C(=O)NC(C)C)o1,8.51%
2,O=C(CSc1nnc2c(n1)[nH]c1ccccc12)Nc1ccc(N2CCOCC2)cc1,11.6%
3,CC(C)Cn1c(SCC(=O)N2CCCCC2)nc2ccccc2c1=O,-5.24%
4,Cc1cc(NS(=O)(=O)c2ccc(NC(=O)Nc3ccc4c(c3)OCO4)cc2)no1,15.7%
5,Cc1c(NC(=O)C(C)OC(=O)c2ccc(Br)o2)c(=O)n(-c2ccccc2)n1C (stereo not shown),13.9%
6,COc1cc([N+](=O)[O-])ccc1NC(=S)NCc1ccccn1,8.38%
7,CCOC(=O)C(=CNc1cccc(N)n1)C(=O)OCC,-5.43%
8,N#CCN1CCN(CC(=O)Nc2ccc(OCc3ccccc3)cc2)CC1,6.88%
9,Cc1ccc(C(=O)N/N=C2\CC3CC=CC23)c(C)c1 (stereo not shown),10.8%
10,CCOc1ccccc1CNS(=O)(=O)c1csc(C(N)=O)c1,16.4%
11,CCOc1ccc(CCNC(=O)COC(=O)Cc2ccc(F)cc2)cc1OCC,1.13%
12,CC(C)(C)S(=O)(=O)/C(C#N)=N/Nc1ccc(S(C)(=O)=O)cc1,16.4%
13,O=C(O)CCCCCNC(=O)C(=O)C1C(=O)Nc2ccccc21 (stereo not shown),12.5%
14,CCc1ccc(OCC(=O)N(C)CCC#N)c(Br)c1,-0.573%
15,COc1cccc(CNC(=O)CCC2CCCN(C3CCOCC3)C2)c1 (stereo not shown),4.76%
16,CCOC(=O)C1CCCN(c2nc3ccccc3nc2NS(=O)(=O)c2ccc(C)cc2)C1 (stereo not shown),-12.4%
17,COc1ccccc1OC(=O)CCc1nc2ccccc2s1,-1.48%
18,CCN(CC)S(=O)(=O)c1ccc(/C=C/C(=O)OCC(=O)Nc2cccnc2Cl)cc1,1.45%
19,CCOC(=O)C(=O)Nc1ccccc1C(=O)OC,10.2%
20,Cc1sc2nc(SCC(=O)N3CCCCC3)[nH]c(=O)c2c1C,6.38%

row,SMILES,"hERG current change (%, negative = inhibition) at 1uM"
1,CC(C)C(=O)N1CCN(c2ccccc2NC(=S)NC(=O)Cc2ccccc2)CC1,5%
2,Cc1ccc(C(=O)NNC(=O)CSc2nnc(-c3ccncc3)n2C)cc1,10%
3,NC(=O)CSc1c[nH]c2ccccc12,-0.731%
4,COc1ccc(/C=C2\SC(=S)N(NS(=O)(=O)c3ccc(C)cc3)C2=O)c(OC)c1,12.2%
5,Cc1ccc(C)c(-c2[nH]ncc2CN2CCCC(CO)(Cc3ccccc3C)C2)c1 (stereo not shown),-5.7%
6,Cc1cccc(OCCc2c(C)[nH]c(=S)[nH]c2=O)c1,5.54%
7,CC(=O)N1CC(=O)Nc2ccc(C)cc2C1c1ccccc1 (stereo not shown),12.4%
8,CC(=O)Nc1ccc(C#Cc2ccc(NC(C)=O)cc2)cc1,13%
9,CCN(CC(=O)Nc1c(F)cccc1F)C(=O)Cc1n[nH]c(=O)c2ccccc12,20%
10,Cc1ccccc1-n1nc(SCC(=O)O)sc1=S,15%
11,NC(=O)CN1CCN(C(=O)Nc2ccccc2)CC1,0.355%
12,O=C(C1CCCN1S(=O)(=O)c1ccc(Cl)c(Cl)c1)N1CCCCC1 (stereo not shown),9.67%
13,O=C(COc1ccc(Br)cc1Br)NN1C(=O)c2ccccc2C1=O,-12.6%
14,Cn1c(SCc2nc3ccccc3[nH]2)nnc1-c1cccnc1,13.7%
15,CCOc1ccc(NC(=O)CSc2nnc(-c3ccccn3)n2C)cc1,8.33%
16,CCOc1ccc(OCCC(=O)OCC(=O)Nc2ccc3c(c2)OCCO3)cc1,-0.445%
17,CCOC(=O)C1CCN(CC(=O)Nc2c(C(=O)OC)[nH]c3ccc(Cl)cc23)CC1,-8.95%
18,CC(/C=N/NC(=O)c1ccc2nc(C)[nH]c2c1)=C\c1ccccc1,-3.8%
19,O=C1Nc2ccccc2/C1=C/c1ccnc2ccccc12,8.23%
20,Cc1ccccc1S(=O)(=O)Cc1ccc(C(=O)NCCc2ccccc2)o1,15.8%

row,SMILES,"hERG current change (%, negative = inhibition) at 1uM"
1,COC(=O)c1c(NC(=O)CC2NCCNC2=O)sc2c1CCCC2 (stereo not shown),6.79%
2,COc1ccccc1CCN=C(N)NS(=O)(=O)c1cc(F)ccc1F,14%
3,Cc1cc(Nc2ccccc2)nc(-c2ccccc2O)n1,8.47%
4,O=C(CSc1nc2c(c(=O)n1-c1ccc(Cl)cc1)SCC2)N1CCOCC1,-0.284%
5,O=[N+]([O-])c1cc(-c2ccc(C(=S)N3CCOCC3)o2)ccc1Cl,15.4%
6,Cc1ccc(N(CC(=O)NC2CCCC2)C(=O)Cn2nnc(-c3ccccc3F)n2)cc1,4.58%
7,COCCCNC(=S)NC1CC2CCCC(C1)N2Cc1ccco1 (stereo not shown),-1.06%
8,O=C(CSCc1c(Cl)cccc1Cl)N1CCOCC1,5.11%
9,CNC(=O)NNC(=O)c1csc(-c2ccc(C(F)(F)F)cc2Cl)n1,9.78%
10,COc1cc(C(=O)Nc2nc3ccccc3s2)ccc1OCc1c(C)noc1C,1.68%
11,Cc1ccc(NC(=O)CN2C(=O)NC3(CCCC3)C2=O)cc1S(=O)(=O)N1CCCCC1,-0.377%
12,CCOC(=O)N1CCN(CC(=O)n2c(C)c(C)c3ccccc32)CC1.O=C(O)C(=O)O,11.5%
13,Cc1ccc(S(=O)(=O)N2CCOC2CNC(=O)C(=O)NCc2cccnc2)cc1 (stereo not shown),15.5%
14,C/C(Cc1ccccc1)=N\NC(=O)c1ccccn1,16.4%
15,CCC1=NN2C(=N)/C(=C\c3cccn3-c3ccc(C)c(C)c3)C(=O)N=C2S1,6.59%
16,O=C(Cn1c2c(c(-c3ccccc3Cl)cc1=O)CCC2)NCC1CCCO1 (stereo not shown),7.16%
17,CC(OC(=O)C1CC1C)C(=O)Nc1ncc(Cl)cc1Cl (stereo not shown),8.07%
18,C/C(CC(=O)Nc1c(C)cc(C)cc1C)=N\NC(=O)OC(C)(C)C,1.02%
